According to the supplement of paper PMC8728848:
This is one part of the list.

Legend:
Experiment in all cases: glycan array binding signal (z-score within array); higher = stronger binding
Settings in all cases: glycan notation: IUPAC condensed, linker removed
Gal6S(b1-4)Glc = molecular target: Gal6S(b1-4)Glc
Method in brief: (§1)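 Glycan array binding is given as a within-array Z-score, which can be read as non-binding when negative. The arrays, 3228 of them, came from the Consortium for Functional Glycomics database and were retained only where the protein sequence was available. Z-scores were averaged across arrays of the same protein sequence at different concentrations or buffers and across linkers.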

Gal6S(b1-4)Glc6S = molecular target: Gal6S(b1-4)Glc6S
Method in brief: as §1

Gal6S(b1-4)GlcNAc = molecular target: Gal6S(b1-4)GlcNAc
Method in brief: as §1

GalNAc(a1-3)Gal = molecular target: GalNAc(a1-3)Gal
Method in brief: as §1

GalNAc(a1-3)GalNAc = molecular target: GalNAc(a1-3)GalNAc
Method in brief: as §1

[1] = molecular target: GalNAc(b1-3)Gal(a1-4)Gal(b1-4)GlcNAc
Method in brief: as §1

GalNAc(b1-4)GlcNAc = molecular target: GalNAc(b1-4)GlcNAc
Method in brief: as §1

Glc(a1-4)Glc = molecular target: Glc(a1-4)Glc
Method in brief: as §1

Glc(a1-6)Glc(a1-6)Glc = molecular target: Glc(a1-6)Glc(a1-6)Glc
Method in brief: as §1

Glc(b1-4)Glc = molecular target: Glc(b1-4)Glc
Method in brief: as §1

Glc(b1-6)Glc = molecular target: Glc(b1-6)Glc
Method in brief: as §1

GlcA(b1-3)Gal = molecular target: GlcA(b1-3)Gal
Method in brief: as §1

GlcA(b1-6)Gal = molecular target: GlcA(b1-6)Gal
Method in brief: as §1

[2] = molecular target: GlcNAc(a1-3)Gal(b1-4)GlcNAc
Method in brief: as §1

[3] = molecular target: GlcNAc(a1-6)Gal(b1-4)GlcNAc
Method in brief: as §1

[4] = molecular target: GlcNAc(b1-2)Gal(b1-3)GlcNAc
Method in brief: as §1

[5] = molecular target: GlcNAc(b1-2)Man(a1-3)[GlcNAc(b1-2)Man(a1-6)]Man(b1-4)GlcNAc(b1-4)GlcNAc
Method in brief: as §1

GlcNAc(b1-3)Gal = molecular target: GlcNAc(b1-3)Gal
Method in brief: as §1

[6] = molecular target: GlcNAc(b1-3)Gal(b1-3)GalNAc
Method in brief: as §1

GlcNAc(b1-3)Gal(b1-4)Glc = molecular target: GlcNAc(b1-3)Gal(b1-4)Glc
Method in brief: as §1

[7] = molecular target: GlcNAc(b1-3)Gal(b1-4)GlcNAc
Method in brief: as §1

[8] = molecular target: GlcNAc(b1-3)Gal(b1-4)GlcNAc(b1-3)Gal(b1-4)GlcNAc
Method in brief: as §1

GlcNAc(b1-3)GalNAc = molecular target: GlcNAc(b1-3)GalNAc
Method in brief: as §1

[9] = molecular target: GlcNAc(b1-3)[GlcNAc(b1-4)][GlcNAc(b1-6)]GlcNAc
Method in brief: as §1

[10] = molecular target: GlcNAc(b1-3)[GlcNAc(b1-6)]Gal(b1-4)GlcNAc
Method in brief: as §1

[11] = molecular target: GlcNAc(b1-3)[GlcNAc(b1-6)]GlcNAc
Method in brief: as §1

[12] = molecular target: GlcNAc(b1-4)Gal(b1-4)GlcNAc
Method in brief: as §1

[13] = molecular target: GlcNAc(b1-4)GlcNAc(b1-4)GlcNAc
Method in brief: as §1

[14] = molecular target: GlcNAc(b1-4)GlcNAc(b1-4)GlcNAc(b1-4)GlcNAc(b1-4)GlcNAc
Method in brief: as §1

[15] = molecular target: GlcNAc(b1-4)GlcNAc(b1-4)GlcNAc(b1-4)GlcNAc(b1-4)GlcNAc(b1-4)GlcNAc
Method in brief: as §1

[16] = molecular target: GlcNAc(b1-4)[GlcNAc(b1-6)]GalNAc
Method in brief: as §1

[17] = molecular target: GlcNAc(b1-6)Gal(b1-4)GlcNAc
Method in brief: as §1

GlcNAc(b1-6)GalNAc = molecular target: GlcNAc(b1-6)GalNAc
Method in brief: as §1

Kdn(a2-3)Gal(b1-3)GlcNAc = molecular target: Kdn(a2-3)Gal(b1-3)GlcNAc
Method in brief: as §1

Kdn(a2-3)Gal(b1-4)GlcNAc = molecular target: Kdn(a2-3)Gal(b1-4)GlcNAc
Method in brief: as §1

[18] = molecular target: Man(a1-2)Man(a1-2)Man(a1-3)Man
Method in brief: as §1

[19] = molecular target: Man(a1-2)Man(a1-2)Man(a1-3)[Man(a1-2)Man(a1-3)[Man(a1-2)Man(a1-6)]Man(a1-6)]Man(b1-4)GlcNAc(b1-4)GlcNAc
Method in brief: as §1

[20] = molecular target: Man(a1-2)Man(a1-2)Man(a1-3)[Man(a1-2)Man(a1-6)[Man(a1-3)]Man(a1-6)]Man(b1-4)GlcNAc(b1-4)GlcNAc
Method in brief: as §1

[21] = molecular target: Man(a1-2)Man(a1-2)Man(a1-6)[Man(a1-3)]Man
Method in brief: as §1

Man(a1-2)Man(a1-3)Man = molecular target: Man(a1-2)Man(a1-3)Man
Method in brief: as §1

[22] = molecular target: Man(a1-2)Man(a1-3)[Man(a1-2)Man(a1-6)]Man
Method in brief: as §1

[23] = molecular target: Man(a1-2)Man(a1-3)[Man(a1-3)[Man(a1-6)]Man(a1-6)]Man(b1-4)GlcNAc(b1-4)GlcNAc
Method in brief: as §1

[24] = molecular target: Man(a1-2)Man(a1-3)[Man(a1-6)]Man(a1-6)[Man(a1-2)Man(a1-3)]Man(b1-4)GlcNAc(b1-4)GlcNAc
Method in brief: as §1

Man(a1-3)[Man(a1-6)]Man = molecular target: Man(a1-3)[Man(a1-6)]Man
Method in brief: as §1

[25] = molecular target: Man(a1-3)[Man(a1-6)]Man(a1-6)[Man(a1-3)]Man(b1-4)GlcNAc(b1-4)GlcNAc
Method in brief: as §1

[26] = molecular target: Man(a1-3)[Man(a1-6)]Man(b1-4)GlcNAc(b1-4)GlcNAc
Method in brief: as §1

Man(b1-4)GlcNAc = molecular target: Man(b1-4)GlcNAc
Method in brief: as §1

Neu5Ac(a2-3)Gal = molecular target: Neu5Ac(a2-3)Gal
Method in brief: as §1

[27] = molecular target: Neu5Ac(a2-3)Gal(b1-3)GalNAc
Method in brief: as §1

B1: RNase 1 (Homo sapiens) (protein)
chain: KESRAKKFQRQHMDSDSSPSSSSTYCNQMMRRRNMTQGRCKPVNTFVHEPLVDVQNVCFQEKVTCKNGQGNCYKSNSSMHITDCRLTNGSRYPNCAYRTSPKERHIIVACEGSPYVPVHFDASVEDST
glycan array binding signal (z-score) (Gal6S(b1-4)Glc): -0.073
glycan array binding signal (z-score) (Gal6S(b1-4)Glc6S): -0.067
glycan array binding signal (z-score) (Gal6S(b1-4)GlcNAc): -0.2
glycan array binding signal (z-score) (GalNAc(a1-3)Gal): -0.222
glycan array binding signal (z-score) (GalNAc(a1-3)GalNAc): -0.137
glycan array binding signal (z-score) [1]: 0.455
glycan array binding signal (z-score) (GalNAc(b1-4)GlcNAc): -0.186
glycan array binding signal (z-score) (Glc(a1-4)Glc): -0.235
glycan array binding signal (z-score) (Glc(a1-6)Glc(a1-6)Glc): -0.187
glycan array binding signal (z-score) (Glc(b1-4)Glc): -0.207
glycan array binding signal (z-score) (Glc(b1-6)Glc): -0.174
glycan array binding signal (z-score) (GlcA(b1-3)Gal): -0.161
glycan array binding signal (z-score) (GlcA(b1-6)Gal): -0.088
glycan array binding signal (z-score) [2]: -0.233
glycan array binding signal (z-score) [3]: -0.17
glycan array binding signal (z-score) [4]: 0.031
glycan array binding signal (z-score) [5]: -0.106
glycan array binding signal (z-score) (GlcNAc(b1-3)Gal): -0.181
glycan array binding signal (z-score) [6]: -0.194
glycan array binding signal (z-score) (GlcNAc(b1-3)Gal(b1-4)Glc): -0.099
glycan array binding signal (z-score) [7]: -0.212
glycan array binding signal (z-score) [8]: -0.245
glycan array binding signal (z-score) (GlcNAc(b1-3)GalNAc): -0.251
glycan array binding signal (z-score) [9]: -0.069
glycan array binding signal (z-score) [10]: -0.22
glycan array binding signal (z-score) [11]: -0.116
glycan array binding signal (z-score) [12]: -0.174
glycan array binding signal (z-score) [13]: -0.038
glycan array binding signal (z-score) [14]: -0.028
glycan array binding signal (z-score) [15]: -0.15
glycan array binding signal (z-score) [16]: -0.122
glycan array binding signal (z-score) [17]: -0.165
glycan array binding signal (z-score) (GlcNAc(b1-6)GalNAc): -0.213
glycan array binding signal (z-score) (Kdn(a2-3)Gal(b1-3)GlcNAc): -0.162
glycan array binding signal (z-score) (Kdn(a2-3)Gal(b1-4)GlcNAc): -0.237
glycan array binding signal (z-score) [18]: -0.204
glycan array binding signal (z-score) [19]: -0.208
glycan array binding signal (z-score) [20]: -0.153
glycan array binding signal (z-score) [21]: -0.001
glycan array binding signal (z-score) (Man(a1-2)Man(a1-3)Man): -0.174
glycan array binding signal (z-score) [22]: -0.205
glycan array binding signal (z-score) [23]: -0.216
glycan array binding signal (z-score) [24]: -0.132
glycan array binding signal (z-score) (Man(a1-3)[Man(a1-6)]Man): -0.147
glycan array binding signal (z-score) [25]: -0.171
glycan array binding signal (z-score) [26]: -0.179
glycan array binding signal (z-score) (Man(b1-4)GlcNAc): -0.209
glycan array binding signal (z-score) (Neu5Ac(a2-3)Gal): -0.215
glycan array binding signal (z-score) [27]: -0.23
